Consider 76 compounds from the supplement of paper PMC10670038.

Values joined by “and” are separate entries in the source; they are usually repeats but may differ in a detail not shown here. Equal entries are not always repeated. Structures can show the parent of a compound that is named as a salt. ± gives the standard deviation of the averaged measurements. In all, about 2,000 compounds were measured (“relative cell viability vs DMSO, compound + 0.2 uM CuET”: median about 1, lowest 2% from about 0.25 on). Some of the results follow.

For this test, the system named is TE10. The experiment in a line: relative cell viability vs DMSO, compound + 0.2 uM CuET (fraction); TE10 is an esophageal squamous carcinoma line; higher = less cytotoxic. The note with it: 2 µM; co-treatment: CuET (bis(diethyldithiocarbamate)copper) 0.2 uM; 48 h. The method, then: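 TE10 ESCC cells (1,000/well, 384-well plates) were treated with Selleck bioactive library compounds at 2 uM combined with 0.2 uM CuET (copper diethyldithiocarbamate) for 48 h. Viability was read by CellTiter-Glo and expressed relative to DMSO wells. Two technical replicates (A, B).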
Turning to `C=CCc1cc(OC)c(O)c(C(=O)NCCO)c1` [Alibendol], the relative cell viability was determined as 0.884 ± 0.023.

As for `COc1cc(N2CCN(C)CC2)ccc1Nc1nccc(-c2cn(C)c3cnccc23)n1`, the relative cell viability worked out at 1.01 ± 0.16.

With `COc1cc2c(cc1O)CC[C@@H]1[C@@H]2CC[C@]2(C)[C@@H](O)CC[C@@H]12` [2-Methoxyestradiol (2-MeOE2)], the relative cell viability was found to be 0.511 ± 0.24.

For the compound `CC(C)NC[C@H](O)COc1ccc(CCOCC2CC2)cc1` [Levobetaxolol HCl], the relative cell viability was found to be 0.929 ± 0.046.

Consider `COC(=O)C1=C(C)NC(C)=C(C(=O)OC)C1c1ccccc1[N+](=O)[O-]` [Nifedipine], for which the relative cell viability is 0.827 ± 0.066.

On to `NC(=O)c1cccc2[nH]c(-c3ccc(C4CCCN4)cc3F)nc12` (stereo unspecified), for which the relative cell viability is 1.05 ± 0.046.

As for `O=C(O)CSc1cc(NS(=O)(=O)c2ccc(Br)cc2)c2ccccc2c1O`, the relative cell viability is 0.979 ± 0.11.

`COC(=O)N1CCN(Cc2cccc(NC(=O)Nc3ccc(C)nc3)c2F)CC1`: the relative cell viability stood at 1.22 ± 0.039.

`CN(C)CCCN1c2ccccc2CCc2ccc(Cl)cc21` [Clomipramine HCl]: the relative cell viability stood at 0.995 ± 0.044.

With `Nc1ccc(O)c(C(=O)O)c1` [Mesalamine], the relative cell viability worked out at 1.089 ± 0.0055.

As to `CC[C@H]1OC(=O)[C@H](C)[C@@H](O[C@H]2C[C@@](C)(OC)[C@@H](O)[C@H](C)O2)[C@H](C)[C@@H](O[C@@H]2O[C@H](C)C[C@H](N(C)C)[C@H]2O)[C@](C)(O)C[C@@H](C)C(=O)[C@H](C)[C@@H](O)[C@]1(C)O` [Erythromycin], the relative cell viability came out at 1.03 ± 0.022.

As to `O=C1c2ccccc2C(=O)C1c1ccccc1` [Phenindione], the relative cell viability was found to be 0.986 ± 0.032.

On to `O=C(c1cc(Cc2n[nH]c(=O)c3ccccc23)ccc1F)N1CCN(C(=O)C2CC2)CC1`, for which the relative cell viability is 1.32 ± 0.043.

With `O=C(O)CCCc1c[nH]c2ccccc12` [3-Indolebutyric acid (IBA)], the relative cell viability was found to be 1.12 ± 0.072.

On to `O=C(O)CCc1nc(-c2ccccc2)c(-c2ccccc2)o1` [Oxaprozin], for which the relative cell viability stood at 1.19 ± 0.18.

`CC(C)(Oc1ccc(CCNC(=O)c2ccc(Cl)cc2)cc1)C(=O)O` [Bezafibrate]: the relative cell viability was determined as 1.18 ± 0.057.

Turning to `c1ccc(CC2=NCCN2)cc1` [Tolazoline HCl], the relative cell viability worked out at 1.23 ± 0.026.

With `CCc1ccc(CCOc2ccc(CC3SC(=O)NC3=O)cc2)nc1` (stereo unspecified) [Pioglitazone], the relative cell viability was determined as 1.01 ± 0.11.

Regarding `CCc1ccc(CCOc2ccc(CC3SC(=O)NC3=O)cc2)nc1` (stereo unspecified) [Pioglitazone HCl], the relative cell viability came out at 1.01 ± 0.085.

As for `Cc1ccc(S(=O)(=O)C=CC#N)cc1`, the relative cell viability worked out at 0.101 ± 0.0039.

`CNC[C@@H](O)c1ccc(O)c(O)c1` [L-Adrenaline]: the relative cell viability worked out at 0.8493 ± 0.0035.

`Cc1ccc(N(CC2=NCCN2)c2cccc(O)c2)cc1` [Phentolamine Mesylate]: the relative cell viability is 0.943 ± 0.084.

With `CC(C)Nc1cc(-c2c[nH]c(C(=O)N[C@H](CO)c3cccc(Cl)c3)c2)c(Cl)cn1`, the relative cell viability stood at 0.937 ± 0.02.

For the compound `CCCSc1ccc2[nH]c(NC(=O)OC)nc2c1` [Albendazole], the relative cell viability was 0.786 ± 0.049.

`Cc1c(Cl)cccc1Nc1ccccc1C(=O)O` [Tolfenamic Acid]: the relative cell viability is 1.14 ± 0.077.

With `CO[C@H]1/C=C/O[C@@]2(C)Oc3c(C)c(O)c4c(O)c(c(/C=N/N5CCN(C)CC5)c(O)c4c3C2=O)NC(=O)/C(C)=C\C=C\[C@H](C)[C@H](O)[C@@H](C)[C@@H](O)[C@@H](C)[C@H](OC(C)=O)[C@@H]1C` [Rifampin], the relative cell viability turned out to be 0.92 ± 0.073.

Turning to `COc1cc(F)c(C(C)C)cc1-c1ccc(C(F)(F)F)cc1CN1C(=O)O[C@H](c2cc(C(F)(F)F)cc(C(F)(F)F)c2)[C@@H]1C` [Anacetrapib (MK-0859)], the relative cell viability was found to be 1.17 ± 0.019.

Take `COC(=O)[C@H](c1ccccc1Cl)N1CCc2sccc2C1` [Clopidogrel]: the relative cell viability worked out at 1.22 ± 0.034.

As for `COCCCC/C(=N\OCCN)c1ccc(C(F)(F)F)cc1` [Fluvoxamine maleate], the relative cell viability was found to be 1.06 ± 0.015.

`O=C(Nc1cc(C(F)(F)F)cc(C(F)(F)F)c1)c1cc(Cl)ccc1O`: the relative cell viability was found to be 0.317 ± 0.038.

`NC(=O)N1CCC(CC(=O)N2CCC([C@H]3c4ncc(Br)cc4CCc4cc(Cl)cc(Br)c43)CC2)CC1` [Lonafarnib]: the relative cell viability was 1.025 ± 0.0057.

Regarding `C[C@H](N[C@@H](CCc1ccccc1)C(=O)O)C(=O)N1CCC[C@H]1C(=O)O` [Enalaprilat Dihydrate], the relative cell viability is 1.01 ± 0.027.

Consider `CC(C)C[C@H](NC(=O)[C@H](Cc1ccccc1)NC(=O)c1cnccn1)B(O)O` [Bortezomib (PS-341)], for which the relative cell viability is 0.348 ± 0.058.

On to `Cc1ccc2c(c1)C(=O)C1(O)CCN(c3ccccc3)C1=N2` (single isomer, unassigned; (-)) [(-)-Blebbistatin], for which the relative cell viability was found to be 1.19 ± 0.12.

For the compound `COc1ccc(CC(C)NCC(O)c2ccc(O)c(NC=O)c2)cc1` (stereo unspecified) [Formoterol Hemifumarate], the relative cell viability stood at 1.04 ± 0.067.

For the compound `O=C1C(c2c(O)[nH]c3ccccc23)=Nc2ccccc21` [Indirubin], the relative cell viability stood at 0.978 ± 0.15.

`CS(=O)(=O)c1ccc(C(=O)Nc2ccc(Cl)c(-c3ccccn3)c2)c(Cl)c1` [Vismodegib (GDC-0449)]: the relative cell viability turned out to be 1.05 ± 0.12.

`CN1CCN(S(=O)(=O)c2ccc(-c3cnc(N)c(C(=O)Nc4cccnc4)n3)cc2)CC1`: the relative cell viability stood at 0.802 ± 0.14.

For the compound `COc1ccc(-c2coc3cc(O)ccc3c2=O)cc1` [Formononetin], the relative cell viability came out at 0.968 ± 0.14.

With `CNc1nc(-c2ccc3c(N)n[nH]c3c2)cc(N2C[C@@H](C(=O)NC3CCCCC3)CC[C@H]2C)n1`, the relative cell viability amounted to 1.06 ± 0.091.

`Oc1c(Br)cc(Br)c2cccnc12` [Broxyquinoline]: the relative cell viability stood at 0.689 ± 0.033.

`Nc1ccc2ncnc(NCCc3ccc(Oc4ccccc4)cc3)c2c1`: the relative cell viability is 0.8482 ± 0.0067.

Consider `Nc1nc(F)nc2c1ncn2[C@@H]1O[C@H](COP(=O)(O)O)[C@@H](O)[C@@H]1O` [Fludarabine Phosphate], for which the relative cell viability amounted to 0.325 ± 0.17.

On to `O=C(NOCC1CC1)c1ccc(F)c(F)c1Nc1ccc(I)cc1Cl`, for which the relative cell viability turned out to be 0.64 ± 0.17.

Consider `O=C(COc1ccc(C(=O)c2ccccc2)cc1)NC1CCN(Cc2ccccc2)CC1` [AdipoRon], for which the relative cell viability came to 1.11 ± 0.045.

On to `CC1(C)CCC(c2ccc(Cl)cc2)=C(CN2CCN(c3ccc(C(=O)NS(=O)(=O)c4ccc(N[C@H](CCN5CCOCC5)CSc5ccccc5)c(S(=O)(=O)C(F)(F)F)c4)cc3)CC2)C1` [ABT-263 (Navitoclax)], for which the relative cell viability was found to be 0.368 ± 0.097.

As for `C1N2CN3CN1CN(C2)C3` [Methenamine], the relative cell viability worked out at 1.05 ± 0.1.

Regarding `C=C(C)[C@@H]1CC[C@]2(C(=O)O)CC[C@]3(C)[C@H](CC[C@@H]4[C@@]5(C)CC[C@H](O)C(C)(C)[C@@H]5CC[C@]43C)[C@@H]12` [Betulinic acid], the relative cell viability was determined as 0.945 ± 0.13.

In the case of `c1ccc2c(c1)CCCC2C1=NCCN1` (stereo unspecified) [Tetrahydrozoline HCl], the relative cell viability came to 1.27 ± 0.14.

On to `CC(C)OC(=O)C(C(=O)OC(C)C)=C1SC=CS1` [Malotilate], for which the relative cell viability was 1.19 ± 0.11.

As for `CNc1ncnc2c1ncn2[C@@H]1O[C@H](CO)[C@@H](O)[C@H]1O` [N6-methyladenosine (m6A)], the relative cell viability was 1.06 ± 0.23.

In the case of `CC(=O)N[C@@H](CC(C)C)C(=O)N[C@@H](CC(C)C)C(=O)N[C@H](C=O)CCCNC(=N)N` [Leupeptin Hemisulfate], the relative cell viability is 1.16 ± 0.025.

Turning to `CS(=O)(=O)c1ccc([C@@H](O)[C@@H](CF)NC(=O)C(Cl)Cl)cc1` [Florfenicol], the relative cell viability came to 1.28 ± 0.081.

On to `O=C(COc1cccc2c(=O)[nH]ccc12)c1ccccc1`, for which the relative cell viability is 1.23 ± 0.17.

As to `CC(C)c1nc(N(C)S(C)(=O)=O)nc(-c2ccc(F)cc2)c1/C=C/[C@@H](O)C[C@@H](O)CC(=O)O` [Rosuvastatin Calcium], the relative cell viability came out at 1.07 ± 0.046.

For `CCCCCOc1ccc(-c2ccc(-c3ccc(C(=O)N[C@H]4C[C@@H](O)[C@@H](O)NC(=O)[C@@H]5[C@@H](O)[C@@H](C)CN5C(=O)[C@H]([C@@H](C)O)NC(=O)[C@H]([C@H](O)[C@@H](O)c5ccc(O)cc5)NC(=O)[C@@H]5C[C@@H](O)CN5C(=O)[C@H]([C@@H](C)O)NC4=O)cc3)cc2)cc1`, the relative cell viability came to 0.991 ± 0.011.

As to `O=C1NC(=O)C(c2ccccc2[N+](=O)[O-])=C1Nc1ccc(O)c(Cl)c1`, the relative cell viability was found to be 1.28 ± 0.072.

In the case of `CCCc1ncc(C[n+]2ccccc2C)c(N)n1` [Amprolium HCl], the relative cell viability is 1.39 ± 0.11.

Regarding `COCCOc1nc(-c2ccc(Cl)c(Cl)c2)n(-c2ccc(NC(=O)CCl)cc2)n1` [MI-2 (MALT1 inhibitor)], the relative cell viability is 0.115 ± 0.0096.

As to `CC(C(=O)O)c1cccc(Oc2ccccc2)c1` (stereo unspecified) [Fenoprofen Calcium], the relative cell viability is 0.963 ± 0.063.

For `CC(C(=O)O)c1cccc(Oc2ccccc2)c1` (stereo unspecified) [Fenoprofen calcium hydrate], the relative cell viability is 1.15 ± 0.11.

`C[C@H](NCc1ccc(OCc2cccc(F)c2)cc1)C(N)=O` [Safinamide Mesylate]: the relative cell viability was found to be 1.2 ± 0.021.

As for `CCn1cc(C(=O)O)c(=O)c2cc(F)c(N3CCNCC3)nc21` [Enoxacin], the relative cell viability was determined as 1.03 ± 0.012.

`CC(=O)OCC(=O)NCCCOc1cccc(CN2CCCCC2)c1` [Roxatidine Acetate HCl]: the relative cell viability came to 1.07 ± 0.064.

With `OC[C@@H](O)[C@@H](O)[C@H](O)[C@H](O)CO` [D-Mannitol], the relative cell viability came to 1.06 ± 0.036.

With `O=C(O)C(Cc1ccccc1[N+](=O)[O-])=NNc1nc(-c2ccc(Cl)c(Cl)c2)cs1`, the relative cell viability was 1.04 ± 0.16.

Turning to `COc1cc(Br)c(Nc2nc(-c3c(C)nc4ncccn34)cs2)c(Br)c1`, the relative cell viability was 0.757 and 0.771.

With `CC(=Cc1ccc(C(=O)O)cc1)c1ccc2c(c1)C(C)(C)CCC2(C)C` [TTNPB (Arotinoid Acid)], the relative cell viability is 1.01 ± 0.036.

Turning to `COC(=O)Nc1nc2cc(C(=O)c3cccs3)ccc2[nH]1` [Nocodazole], the relative cell viability was 0.681 ± 0.07.

On to `CC(C)c1c(C(=O)Nc2ccccc2)c(-c2ccccc2)c(-c2ccc(F)cc2)n1CC[C@@H](O)C[C@@H](O)CC(=O)O` [Atorvastatin Calcium], for which the relative cell viability was 0.931 ± 0.01.

`CCN[C@H]1CN(CCCOC)S(=O)(=O)c2sc(S(N)(=O)=O)cc21` [Brinzolamide]: the relative cell viability amounted to 0.949 ± 0.069.

With `CC(C)(C)c1cnc(CSc2cnc(NC(=O)C3CCNCC3)s2)o1`, the relative cell viability was found to be 0.963 ± 0.093.

Consider `CC(=O)Nc1cccc(-n2c(=O)n(C3CC3)c(=O)c3c(Nc4ccc(I)cc4F)n(C)c(=O)c(C)c32)c1`, for which the relative cell viability is 0.664 ± 0.049.

Turning to `C[C@@H](NCCCc1cccc(C(F)(F)F)c1)c1cccc2ccccc12` [Cinacalcet HCl], the relative cell viability is 0.733 ± 0.12.

`Nc1[nH]cnc2ncnc1-2` [Adenine HCl]: the relative cell viability came to 1.89 ± 0.0031.

For `NCCc1c[nH]cn1` [Histamine 2HCl], the relative cell viability turned out to be 1.22 ± 0.027.
